From the supplement of paper PMC10126150
Values marked as one replicate rest on one cluster of the flow cell; about a third of the high ones do not repeat.
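Also: ATP exposure 15 min at 22 °C before imaging.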

These sequences were tested on ATP (assay: switch fluorescence ratio, 500 uM ATP over buffer (Cy3 cluster intensity, sum of 5 cycles each) (fold (ratio)); higher = stronger signal-on switching upon ATP binding; sequences stand for … in TCGTCGGCAGCGTCAGATGTGTATAAGAGACAGTTTTTTTTTTTTTTTTTTTTTTTTT…TC). Details: aptamer strand: ATP DNA aptamer (quencher-CACCTGGGGGAGTATTGCGGAGGAAGG + anchor), 100 nM annealed; ATP concentration: 500 uM; one replicate.
In short: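 Per cluster, summed Cy3 intensity from the target cycles was divided by that from the buffer cycles to give the fluorescence ratio, then averaged per switch-domain sequence. Clusters outside 100-1000 RFU were excluded. The Cy3-labelled switching-strand clusters, on a modified Illumina MiSeq flow-cell, were annealed to 100 nM quencher-labelled ATP aptamer and imaged in selection buffer, then after 15 min with 500 uM ATP at 22 °C, for five cycles with NaOH stripping and re-annealing between them.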
TTTTAGAAG showed a switch fluorescence ratio of 1.01. TTTTAGCACA showed a switch fluorescence ratio of 1.1. With TTTTAGCGC the switch fluorescence ratio was 0.977. TTTTAGTCCG was tested, and the switch fluorescence ratio was 1.03. In the case of TTTTAGTCCT, the switch fluorescence ratio is reported as 1.01. Work on TTTTATAACA yielded a switch fluorescence ratio of 0.989. TTTTATCAGT was tested, and the switch fluorescence ratio was 1.01. TTTTCAA gave a switch fluorescence ratio of 0.993. Work on TTTTCAATCA yielded a switch fluorescence ratio of 0.99. With TTTTCATGCT the switch fluorescence ratio was 1.05. For TTTTCATGGA, the switch fluorescence ratio was 0.978. For TTTTCCCCT, the switch fluorescence ratio was 1.03. Work on TTTTCCGGG yielded a switch fluorescence ratio of 1.05. Work on TTTTCCTAG yielded a switch fluorescence ratio of 1.02. TTTTCGATAT gave a switch fluorescence ratio of 1.03. Work on TTTTCGCGTC yielded a switch fluorescence ratio of 0.991. TTTTCGGG showed a switch fluorescence ratio of 1.06. For TTTTCTCCAC, the switch fluorescence ratio was 1.05. Work on TTTTCTTGC yielded a switch fluorescence ratio of 0.998. TTTTGACGG showed a switch fluorescence ratio of 1.04. With TTTTGACGGT the switch fluorescence ratio was 1.01. With TTTTGACTAG the switch fluorescence ratio was 0.972. For TTTTGAGTGC, the switch fluorescence ratio was 1.13. For TTTTGATCAG, the switch fluorescence ratio was 1. For TTTTGCGGC, the switch fluorescence ratio was 1.02. TTTTGGAACC was tested, and the switch fluorescence ratio was 0.958. TTTTGGGCTA was tested, and the switch fluorescence ratio was 0.986. TTTTGGTAAG showed a switch fluorescence ratio of 1.02. With TTTTGGTAG the switch fluorescence ratio was 0.997. Work on TTTTGTCTT yielded a switch fluorescence ratio of 1.01. TTTTGTGCG gave a switch fluorescence ratio of 0.922. TTTTTAATT showed a switch fluorescence ratio of 0.91. TTTTTATGA gave a switch fluorescence ratio of 0.975. In the case of TTTTTCCGAT, the switch fluorescence ratio is reported as 1.02. In the case of TTTTTTTCC, the switch fluorescence ratio is reported as 1.06.
